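Interpolation was linear, between the two tested concentrations surrounding the appropriate level; five concentrations were tested over 48 hours in 96-well plates. GI50: concentration for 50% inhibition of growth. TGI: total growth inhibition.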 Bridge positions count the residues as written; N and C are the ends. Peptide text beside a SMILES is read from it. * marks the point of attachment. Cbz = O=C(OCc1ccccc1)*

The assay has as its system NCI-H322M lung. Kind of assay: inhibition of tumour cell growth, NCI panel, 48 h.
The compound `O=c1[nH]c(=S)[nH]cc1CN1CCOCC1` came in with a TGI of more than 100 µM.

As to `Cc1ccc(S(=O)(=O)n2cc(/C=C/C#N)c(-c3cn(S(=O)(=O)c4ccc(C)cc4)cc3-c3cn(S(=O)(=O)c4ccc(C)cc4)cc3/C=C/C#N)c2)cc1`, the TGI is more than 100 µM.

`COc1cccc(OC)c1C1ON=C(c2ccccc2)N1C12CC3CC(CC(C3)C1)C2` (stereo unspecified) displayed a TGI of more than 100 µM.

As for `CCN(Cc1ccc(OC)cc1)c1ccc(CO)c(Cl)c1`, the GI50 was 17 µM and the TGI stood at 58.8 µM.

On to `COc1ccc(C2=NN(C(N)=S)C(c3ccc4c(c3)OCO4)C2)cc1` (stereo unspecified), for which the GI50 was 2.51 µM and the TGI worked out at 8.19 µM.

`O=C1CSCC(=O)Nc2ccccc2N1`: the TGI is more than 100 µM.

`COc1ccc(-c2cc(N3CCN(c4ccc(Cl)cc4)CC3)c(C#N)c(=O)o2)cc1`: the TGI was determined as 3.06 µM.

For `Cc1ccc(N)c(S)c1`, the TGI came to 52.6 µM.

As for `Cc1cc(I)cc(CNCCN(C)C)c1O`, the GI50 is more than 100 µM and the TGI is more than 100 µM.

The compound `Cc1ccc2c(c1C)C(=O)C1(C2)Cc2ccc3c(c2C1=O)CCC3` (stereo unspecified) came in with a TGI of more than 100 µM.

With `CN(C)CCNC(=O)c1cc2c3cc(Cl)ccc3[nH]c2c2ncccc12`, the GI50 was 4.74 µM and the TGI is 20.6 µM.

Regarding `O=C(N/N=C/c1ccc(Cl)cc1)c1ccc(NC(=O)c2ccccn2)cc1`, the GI50 is 26.3 µM and the TGI was more than 100 µM.

On to `Cn1ncnc1[C@@H]1c2n[nH]c(=O)c3cc(F)cc(c23)N[C@H]1c1ccc(F)cc1`, for which the GI50 was more than 100 µM and the TGI was more than 100 µM.

For `N#CC1=C(N)Oc2c(sc3c(Br)cccc23)C1c1ccc([N+](=O)[O-])cc1` (stereo unspecified), the GI50 is 2.51 µM and the TGI worked out at 19 µM.

`Cn1cc(C2=C(c3ccsc3)C(=O)NC2=O)c2ccccc21`: the GI50 was more than 25 µM and the TGI is more than 25 µM.

Turning to `COC(=O)c1c(O)c(C#N)c2[nH]c3ccccc3n2c1=O`, the TGI was more than 100 µM.

`C=CC1(C)CCC2C(=CCC3C2(C)CC(O)C(O)C3(C)COC2OC(CO)C(O)C(O)C2O)C1` (stereo unspecified) came in with a TGI of more than 100 µM.

As to `CCC(=C(c1ccc(OCCN2CCCCC2)cc1)c1ccc(OCCN2CCCCC2)cc1)c1ccc(Cl)cc1`, the GI50 was 13.4 µM and the TGI was more than 16.7 µM.

`CC(C)[Si](OC12CCC(CC1O)CC2CO)(C(C)C)C(C)C` (stereo unspecified) had a TGI of 25.9 µM.

For `C=C=C[P+](c1ccccc1)(c1ccccc1)c1ccccc1`, the TGI was more than 100 µM.

As to `O=C1C=C(Nc2ccccc2)c2ccccc2C1=O`, the GI50 was 2.84 µM and the TGI was determined as 9.06 µM.

In turn, `N/N=c1/nc2n(c3ncccc13)C=CNN2` returned a TGI of more than 100 µM.

Compound `NC(N)NCCCc1cn2c(n1)C1CCCN1C(=O)C2Cc1ccccc1` (stereo unspecified) returned a TGI of more than 100 µM.

On to `O=C(CCC(=O)c1ccsc1)c1ccsc1`, for which the TGI is more than 100 µM.

The compound `O=C(O)c1cc(CCc2ccc(O)c(O)c2)ccc1O` registered a TGI of more than 100 µM.

As to `CC(C)=CC[C@@H]1CC2(CC=C(C)C)C(=O)C(OC3(C(=O)c4ccccc4)C(=O)C4(CC=C(C)C)C[C@@H](CC=C(C)C)C(C)(C)C(CC=C(C)C)(C4=O)C3=O)(C(=O)c3ccccc3)C(=O)C(CC=C(C)C)(C2=O)C1(C)C` (stereo partly specified), the GI50 is 1.32 µM and the TGI was 3.97 µM.

With `COc1ccc(/C=C/C(=O)c2cc(OC)cc(OC)c2)cc1`, the TGI worked out at 16.5 µM.

For `Nc1ccc(/C=C/c2ccc3ncccc3c2)cc1`, the GI50 was more than 100 µM and the TGI is more than 100 µM.

Regarding `COC(=O)N[C@H]1CCc2cc(OC)c(OC)c(OC)c2-c2ccc(SC)c(=O)cc21`, the GI50 is less than 0.01 µM and the TGI is more than 100 µM.

In turn, `Cc1cccc(Nc2nc3ccccc3nc2NS(=O)(=O)c2ccc(N)cc2)c1` had a TGI of more than 100 µM.

`O=c1c2ccccc2nc(-c2cccc([N+](=O)[O-])c2)n1O`: the TGI was more than 100 µM.

Compound `COc1ccc(C2COc3c(ccc(OC)c3OC)C2=O)cc1OC` (stereo unspecified) had a TGI of more than 100 µM.

Regarding `Cc1c2cnccc2c(C)c2c1c1ccccc1n2CCOC(=O)c1ccccc1`, the TGI is more than 80.4 µM.

`O=C1c2ccccc2C(=O)N1/N=C1/SC(=Nc2ccccc2)C(=Nc2ccccc2)N1c1ccccc1` returned a TGI of more than 100 µM.

`CCCCCCCCCCCCCCCCOCC(COP(=O)(O)OCC1OC(n2cc(CC)c(=O)[nH]c2=O)CC1O)OC(=O)CCCCCCCCCCCCCCC` (stereo unspecified) registered a TGI of more than 100 µM.

Take `C[N+]1([O-])C2CCC1CC(OC(=O)C(CO)c1ccccc1)C2` (stereo unspecified): the TGI is more than 100 µM.

Compound `O=S1OC(c2ccccc2)(c2ccccc2)C(c2ccccc2)(c2ccccc2)O1` displayed a TGI of more than 100 µM.

Compound `Cc1nc2ccc(F)cc2c2c1CCS2` gave a TGI of more than 100 µM.

`O=C(O)/C=C\C(=O)Nc1ccc2c(c1)-c1ccccc1C2` yielded a TGI of more than 100 µM.

Consider `CC1=C(O)C(=O)C=C2C1=CC=C1[C@@]2(C)CC[C@@]2(C)C3C[C@@H](C)C(=O)[C@@H](O)[C@]3(C)CC[C@]12C` (stereo partly specified), for which the TGI is 27.1 µM.

In turn, `COCCN(C(=O)c1ccccc1)C1CCC2(SCCS2)c2[nH]c3ccccc3c21` (stereo unspecified) gave a TGI of more than 100 µM.

In the case of `COc1ccc(N2C(=O)c3cc([N+](=O)[O-])cnc3S2(=O)=O)cc1`, the TGI is more than 100 µM.

With `CC(=O)/C(=C\c1ccc(Cl)cc1)c1ccccc1`, the GI50 was 0.409 µM and the TGI is more than 100 µM.

With `O=C(CCCc1ccc(N(CCCl)CCCl)cc1)NCc1ccccc1`, the GI50 is 29.9 µM and the TGI was more than 100 µM.

`CC(C#N)(c1ccccc1)N(CCc1ccccc1)C(=O)Oc1ccccc1` (stereo unspecified) showed a TGI of more than 100 µM.

In turn, `Clc1ccc(OCC2NC3CCC2CC3)cn1` (stereo unspecified) registered a TGI of more than 100 µM.

Compound `COc1cc2c(cc1OS(C)(=O)=O)N=C[C@@H]1CCCN1C2=O` registered a TGI of more than 100 µM.

For the compound `CCCCn1c(=O)[nH]c(N)c([C@@H]2c3c([nH]c(=O)n(CCCC)c3=O)Oc3ccc4ccccc4c32)c1=O`, the GI50 was 10.3 µM and the TGI was 22 µM.

`CN1CCN(c2cc3[nH]c4cc(O)cc(O)c4c(=O)c3cc2N)CC1` returned a TGI of 74.5 µM.

On to `O=C1C2C3CC4C5C3C1C5C1(SCCS1)C42` (stereo unspecified), for which the TGI is more than 100 µM.

With `CSC(=S)CC(O)[C@@H]1CC2c3ccccc3C1c1ccccc12` (stereo partly specified), the TGI was found to be 30.7 µM.

Regarding `COc1cccc2c1nc(C(F)F)n2-c1nc(-c2ccc(NS(=O)(=O)CCN(C)C)cc2)nc(N2CCOCC2)n1`, the GI50 is 0.0923 µM and the TGI worked out at 6.25 µM.

Compound `C/C=C1/CC(C(=O)OC)N(C(=O)OCc2ccccc2)C1=S` (stereo unspecified) showed a TGI of more than 100 µM.

As to `COc1cc(/C=C2\CC3C4CC=C5CC(OC(C)=O)CC[C@]5(C)C4CC[C@]3(C)C2=O)ccc1OCCN1CCCC1` (stereo partly specified), the GI50 was 3.13 µM and the TGI was 18.9 µM.

`COc1ccc2c(c1)[C@@H](NC(C)=O)CCc1cc(OC)c(OC)c(OC)c1-2` displayed a TGI of 20.4 µM.

As for `Cc1ccc(S(=O)(=O)NNC(=O)Nc2cccc(C(F)(F)F)c2)cc1`, the TGI was more than 100 µM.

As to `NC1=C(O)c2cccc3cccc(c23)C1=O`, the TGI is more than 100 µM.

The compound `CC(C)(C)C(=O)/C=C(\OB(F)F)C(C)(C)C` yielded a TGI of more than 100 µM.

Turning to `CC[C@@H]1/C=C/C=C/C[C@H](C)[C@@H](O)[C@@H](C)C(=O)[C@H](C)[C@@H](O)[C@H](C)C(=O)[C@H](C)[C@@H](O)[C@H](C)/C=C/C(=O)O[C@H]2[C@@H](C)[C@@H](CC1)O[C@@]1(CC[C@@H](C)[C@@H](CC(C)O)O1)[C@@H]2C` (stereo partly specified), the TGI is more than 25 µM.

As for `CC(C)(C)[Si](C)(C)OCC1OC(n2cnc3c(N)ncnc32)C2OC(=S)OC12` (stereo unspecified), the TGI was more than 100 µM.

With `CNC(=O)C1CCCCNC(=O)CCC(NC(=O)OCc2ccccc2)C(=O)N1` (stereo not drawn) (Cbz-Glu-Lys-NHMe; lactam 1-2; configuration not given here), the TGI was more than 100 µM.

The compound `O=C(CCc1nnc2s/c(=C\c3ccc([N+](=O)[O-])cc3)c(=O)n12)Nc1ccc(Cl)c(Cl)c1` returned a TGI of more than 100 µM.

In turn, `COc1cc(CN=c2nc(N(C)C)ss2)cc(OC)c1OC` yielded a TGI of more than 10 µM.

Regarding `CCNC1=C(NC(=O)c2ccc(F)cc2)C(=O)c2ccccc2C1=O`, the TGI was more than 100 µM.

In turn, `Cc1cn([C@@H]2O[C@H](CO[Si](C)(C)C(C)(C)C)[C@]3(O[C@H]3C(=O)NO)[C@H]2O[Si](C)(C)C(C)(C)C)c(=O)[nH]c1=O` showed a TGI of 3.16 µM.

In turn, `CC(NCc1c(O)ccc2c(-c3ccccc3)cc(=O)oc12)C(=O)O` (stereo unspecified) had a TGI of more than 100 µM.

The compound `Fc1ccc(Nc2nc(Cl)c3[nH]cnc3n2)cc1Cl` yielded a TGI of more than 100 µM.

Regarding `O=C1NC(=O)C(c2c[nH]c3ccccc23)=C1c1c[nH]c2ccccc12`, the GI50 is more than 20.8 µM and the TGI is more than 25 µM.

On to `C/C(=C\C(=O)O[C@H]1[C@@H]2[C@H](C)CC[C@H]2[C@]2(C)O[C@@]1(C1CCCCC1)C[C@H]2OC(=O)CO)c1ccccc1`, for which the GI50 is 7.11 µM and the TGI turned out to be 12.8 µM.

Regarding `NS(=O)(=O)c1ccc(NC(=S)NC(=O)Nc2ccc(Cl)c(Cl)c2)cc1`, the TGI was 38.8 µM.

As for `O=c1[nH]c2ccccc2n1C1CCNCC1`, the GI50 is more than 100 µM and the TGI is more than 100 µM.

In turn, `COc1ccc2c(O)c(Oc3ccc(Cl)cc3)c(=O)oc2c1` came in with a TGI of more than 100 µM.

For `C=C(CO)C(=O)OC1CC(=C)C2CC(O)C(C)C2C2OC(=O)C(=C)C12` (stereo unspecified), the TGI is more than 100 µM.

Regarding `Cc1nnc2n1N=C(c1cc(F)c(Cl)cc1Cl)/C(=C/c1ccc(-c3ccc([N+](=O)[O-])cc3)o1)S2`, the TGI is more than 100 µM.

In turn, `COc1cc([C@@H]2c3cc4c(cc3[C@H](OC3OC5COC(c6ccco6)OC5C(O)C3O)C3COC(=O)[C@@H]32)OCO4)cc(OC)c1OC` (stereo partly specified) had a TGI of more than 100 µM.

`O=C(/C=C/c1ccccc1)NC1C=Nc2ccc([N+](=O)[O-])cc2NC1=O` (stereo unspecified) registered a TGI of more than 100 µM.

Take `NS(=O)(=O)c1ccc(N(/C=C/C(=O)C(F)(F)F)CC(=O)c2ccc(F)cc2)cc1`: the GI50 is 27 µM and the TGI is 76.7 µM.

For `N#CC(C(=O)CCCC(=O)Nc1ccccc1[N+](=O)[O-])c1c(Cl)cccc1Cl` (stereo unspecified), the TGI is more than 100 µM.

In the case of `COc1cc(/C=C/C(=O)c2cccc(-n3cc(-c4ccccc4)[nH]c3=O)c2)cc(OC)c1OC`, the GI50 was 2.02 µM and the TGI came to 7.73 µM.

With `CC(CN1NC12CCCC2)N1NC12CCCC2` (stereo unspecified), the TGI was more than 100 µM.

Take `CNC(=O)Oc1cc(C(C)C)ccc1Sc1ccc(C(C)C)cc1OC(=O)NC`: the GI50 is 11.7 µM and the TGI was 25 µM.

`CN(C)c1cccc(-c2cc(=S)c3cc4c(cc3[nH]2)OCO4)c1` showed a TGI of more than 100 µM.

These data come from PubChem BioAssay (NCI).
